# In the supplement of paper PMC4604168 (melanoma cell lines):
# The other results are listed elsewhere or left out. Repeats are few or missing, and single values can be far off.
# How the values were obtained:
# Assay in all cases: cell count relative to DMSO control; melanoma cells; higher = more viable cells
# Settings in all cases: library dose: low library concentration; 72 h
# MeWo = system: MeWo
# RPMI7951 = system: RPMI7951
# RVH-421 = system: RVH-421
# SkMel28 = system: SkMel28
# SkMel30 = system: SkMel30
# SkMel5 = system: SkMel5
# UACC257 = system: UACC257
# UACC62 = system: UACC62
# WM115 = system: WM115
# WM1716 = system: WM1716
# WM1745 = system: WM1745
# WM3526 = system: WM3526
# WM3619 = system: WM3619
# WM451Lu = system: WM451Lu
# 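Note: cell number obtained by counting DAPI-stained nuclei in high-throughput microscope images with image analysis software, screen run in 1,536-well plates.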
Compound,cell count (MeWo),cell count (RPMI7951),cell count (RVH-421),cell count (SkMel28),cell count (SkMel30),cell count (SkMel5),cell count (UACC257),cell count (UACC62),cell count (WM115),cell count (WM1716),cell count (WM1745),cell count (WM3526),cell count (WM3619),cell count (WM451Lu)
"c1cc(-c2cnn3cc(-c4ccc(OCCN5CCCCC5)cc4)cnc23)ccn1 [Dorsomorphin] + Cn1cc(/C=C2\C(=O)Nc3cccnc32)c2ccccc21 [GW441756] (first compound 0.4 µM, partner dose 0.4 µM)",81.5%,115%,108%,93.2%,99.8%,64.6%,68.4%,87%,93.5%,82.3%,79.5%,107%,116%,76.1%
"CCN(CC)CCCCNc1ncc2cc(-c3cc(OC)cc(OC)c3)c(NC(=O)NC(C)(C)C)nc2n1 + Cn1cc(/C=C2\C(=O)Nc3cccnc32)c2ccccc21 [GW441756] (first compound 0.1 µM, partner dose 0.4 µM)",106%,94.6%,112%,83.8%,98.5%,84.5%,83.8%,86.9%,95.4%,101%,74.6%,86.1%,106%,121%
"COc1ccc(-c2ccc3c(N4CCOCC4)nc(N4C[C@@H](C)O[C@@H](C)C4)nc3n2)cc1CO + Cn1cc(/C=C2\C(=O)Nc3cccnc32)c2ccccc21 [GW441756] (first compound 0.02 µM, partner dose 0.4 µM)",84.9%,102%,96.1%,80%,88.9%,82.3%,67.7%,78.6%,91.7%,104%,82.1%,95.1%,86.9%,87.1%
"COC(=O)c1sccc1S(=O)(=O)Nc1ccc(Nc2ccccc2)cc1OC + O=c1cc(-c2cccc3c2Sc2ccccc2S3)oc(N2CCOCC2)c1 [KU55933] (first compound 1 µM, partner dose 1 µM)",97.3%,88.3%,118%,97%,107%,93.8%,103%,108%,101%,98.6%,91.9%,97.4%,81.6%,96.5%
"c1cc(-c2cnn3cc(-c4ccc(OCCN5CCCCC5)cc4)cnc23)ccn1 [Dorsomorphin] + CCCCCCCCCCCC1=C(O)C(=O)C=C(O)C1=O [Embelin] (first compound 0.4 µM, partner dose 1.2 µM)",101%,108%,122%,90.3%,95.1%,109%,86%,97.7%,102%,122%,88.7%,112%,117%,100%
"COC(=O)c1sccc1S(=O)(=O)Nc1ccc(Nc2ccccc2)cc1OC + Cc1cc([N+](=O)[O-])ccc1NS(=O)(=O)c1cc(Cl)ccc1Cl [FH535] (first compound 1 µM, partner dose 1 µM)",107%,99.3%,102%,91.8%,98.8%,83.7%,91.8%,110%,91.5%,94.2%,88.7%,108%,104%,110%
"COc1ccc2c(c1)CCC1C2CCC2(C)C(NCCCCCCN3C(=O)C=CC3=O)CCC12 (configuration not stated) + COc1cc2ncnc(Nc3ccc(Oc4ccccc4)cc3)c2cc1OC [SrcI1] (first compound 0.4 µM, partner dose 2 µM)",90.8%,69.8%,121%,82.8%,93.5%,104%,91.9%,105%,92.8%,93.3%,86.5%,88%,77.5%,97%
"O=S(=O)(c1ccccc1)N(CC(F)(F)F)c1ccc(C(O)(C(F)(F)F)C(F)(F)F)cc1 + CCCCCCCCCCCC1=C(O)C(=O)C=C(O)C1=O [Embelin] (first compound 1.4 µM, partner dose 1.2 µM)",107%,93.4%,83%,80.8%,84.7%,77.6%,92.2%,96.6%,88.3%,97.2%,88.3%,78.6%,102%,101%
"CCN(CC)CCCCNc1ncc2cc(-c3cc(OC)cc(OC)c3)c(NC(=O)NC(C)(C)C)nc2n1 + O=C1NC(=O)/C(=C/c2ccc(-c3ccc(F)cc3O)o2)S1 [AS252424] (first compound 0.1 µM, partner dose 1 µM)",94.3%,103%,105%,93.7%,79.7%,89.4%,82.6%,90.9%,96%,113%,116%,93.3%,101%,110%
"O=C1NC(=O)/C(=C/c2ccc(-c3ccc(F)cc3O)o2)S1 + COc1cc(N2CCC(N3CCN(C)CC3)CC2)ccc1Nc1ncc(Cl)c(Nc2ccccc2S(=O)(=O)C(C)C)n1 [NVP-TAE684] (first compound 1 µM, partner dose 0.08 µM)",83%,98.2%,105%,72.5%,63.9%,88.3%,95.7%,81%,98.7%,87.7%,105%,59.2%,96.2%,98.7%
"COc1ccc2c(c1)CCC1C2CCC2(C)C(NCCCCCCN3C(=O)C=CC3=O)CCC12 (configuration not stated) + O=C1NC(=O)/C(=C/c2ccc(-c3ccc(F)cc3O)o2)S1 [AS252424] (first compound 0.4 µM, partner dose 1 µM)",104%,75.6%,82%,94.5%,65%,111%,115%,80.5%,85.2%,92.2%,78.5%,62.3%,91.5%,97.9%
"COc1cc2ncnc(Nc3ccc(Oc4ccccc4)cc3)c2cc1OC + Oc1cc(-c2nc(-c3ccccc3)[nH]c2-c2ccncc2)ccc1Cl [L779450] (first compound 2 µM, partner dose 0.2 µM)",113%,108%,96.6%,68.9%,114%,96.7%,96.5%,71.2%,83.7%,136%,73.3%,85.3%,107%,101%
"O=S(=O)(c1ccccc1)N(CC(F)(F)F)c1ccc(C(O)(C(F)(F)F)C(F)(F)F)cc1 + Oc1nc(-c2ccc(C(F)(F)F)cc2)nc2c1CSCC2 [XAV939] (first compound 1.4 µM, partner dose 2 µM)",93.9%,113%,111%,96.7%,102%,65.9%,91.5%,84.9%,91.4%,64.3%,73.2%,91.7%,86.6%,102%
"Cc1cc([N+](=O)[O-])ccc1NS(=O)(=O)c1cc(Cl)ccc1Cl + O=c1cc(-c2cccc3c2Sc2ccccc2S3)oc(N2CCOCC2)c1 [KU55933] (first compound 1 µM, partner dose 1 µM)",89.8%,103%,82%,76.6%,95.2%,81.1%,97.5%,87.9%,84.7%,98.6%,82.3%,91.9%,102%,107%
"O=C1NC(=O)/C(=C/c2ccc(-c3ccc(F)cc3O)o2)S1 + c1cc(-c2cnn3cc(-c4ccc(OCCN5CCCCC5)cc4)cnc23)ccn1 [Dorsomorphin] (first compound 1 µM, partner dose 0.4 µM)",97.6%,109%,474%,112%,101%,93.6%,90.7%,92.4%,108%,103%,97.8%,84.4%,90.9%,145%
"Oc1cc(-c2nc(-c3ccccc3)[nH]c2-c2ccncc2)ccc1Cl + O=C(O)C(=O)Nc1sc2c(c1C(=O)O)CCNC2 [TCS401] (first compound 0.2 µM, partner dose 1.66667 µM)",109%,112%,106%,92.8%,99.3%,98.1%,86.3%,71.1%,72.6%,121%,65.8%,63.7%,104%,109%
"O=S(=O)(c1ccccc1)N(CC(F)(F)F)c1ccc(C(O)(C(F)(F)F)C(F)(F)F)cc1 + Cc1cc([N+](=O)[O-])ccc1NS(=O)(=O)c1cc(Cl)ccc1Cl [FH535] (first compound 1.4 µM, partner dose 1 µM)",91.2%,110%,94.6%,84.7%,77.5%,87.8%,98.2%,76%,89.9%,110%,72.4%,87.2%,108%,90.2%
"COc1cc2ncnc(Nc3ccc(Oc4ccccc4)cc3)c2cc1OC + O=C1NC(=O)/C(=C/c2ccc(-c3ccc(F)cc3O)o2)S1 [AS252424] (first compound 2 µM, partner dose 1 µM)",108%,139%,102%,93.3%,82.7%,102%,92.5%,109%,102%,105%,78.1%,95.5%,97.9%,121%
